Data published in patent publication US20240382470A1, “Irak Inhibitor for Treating Cytokine Release-Related Conditions Associated With Infection by a Respiratory Virus” (Rigel Pharmaceuticals, Inc., priority 2021, published 2024).
Where a name gives a salt, the structure may show the parent alone.

Assays:
[1] = tested on: NZB/W F1 mice; assay: body weight in lupus-like disease model on supplemented diet; details: Compound VII-49 0.6 g/kg diet relative to vehicle and 0.12 g/kg diet
Protocol: FIG. 2. Compound VII-49 dose (0.5 g/kg chow), based on prior chow pharmacokinetic (PK) study. A) Mice were fed AIN-76A rodent chow supplemented with Compound VII-49 (0.5 g/kg chow) for 5 days. Compound VII-1 (active metabolite of Compound VII-49) (ng/mL) accumulation was measured from plasma harvest following chow supplementation with Compound VII-49. B) Measurement of Compound VII-1 concentration (Area under the curve=AUC and Cmax) in plasma harvested from Compound VII-49 0.12 g/kg, 0.3 g/kg, and 0.6 g/kg fed mice. C) Body weight over change over time in NZB/W F1 mice fed diets supplemented with vehicle, Compound VII-49 0.12 g/kg, or R509-Tris 0.6 g/kg. Compound VII-1 is the active metabolite of the prodrug compound Compound VII-49.
In order to determine the pharmacokinetics (PK) of Compound VII-49 conversion into Compound VII-1, Mice were fed AIN-76A rodent chow supplemented with Compound VII-49 (0.5 g/kg chow) for 5 days. […] Compound VII-1 concentration (Area under the curve=AUC and Cmax) was measured in different feeding regimes. […] In order to asses the effects of Compound VII-49 on a lupus-like disease model, NZB/W F1 mice were fed diets supplemented with vehicle, Compound VII-49 0.12 g/kg, or Compound VII-49 0.6 g/kg and their change in body weight was measured.

[2] = tested on: Shp1fl/fl RosaERT2-Cre/+ mouse model of lung inflammation; details: Compound VII-49 0.5 g/kg of chow for approximately 13 days, 21 day study
Protocol: FIG. 1. Tamoxifen-induced Shp1 deletion in hematopoietic cells results in ARDS-like disease in mice. ARDS-like disease model is produced by crossing Shp1^fl/fl to Shp1^fl/flRosa^ERT2-CRE/+ mice. Rosa^ERT2-CRE/+ is expressed under a Tamoxifen inducible promoter. When Tamoxifen is administered to Shp1^fl/flRosa^ERT2-CRE/+ mice CRE recombinase is activated resulting in deletion of Shp1 in hematopoietic cells.
FIG. 3. Evaluation of Compound VII-49 administered in chow in the Shp1fl/fl Rosa^ERT2-Cre/+ mouse model of lung inflammation study design. Tamoxifen is administered at day 1 for a total of 4 days wherein Tamoxifen is administered twice a day at 200 mg/kg/bid (400 mg/kg/day). Following 7%/days of control chow, mice are fed chow supplemented with Compound VII-49 0.5 g/kg of chow for a period of approximately 13 days. Mice were euthanized on day 21.
Tamoxifen-induced Shp1 deletion in hematopoietic cells results in ARDS-like disease in mice. In an effort to generate an ARDS-like disease model, Shp1^fl/fl Rosa^ERT2-CRE/+ obtained from Jackson Laboratories were crossed to Shp1^fl/fl mice. Rosa^ERT2-CRE/+ is under the control of a Tamoxifen inducible promoter. Shp1^fl/fl Rosa^ERT2-CRE/+ mice were administered Tamoxifen to activate CRE recombinase resulting in deletion of Shp1 in all cells that normally express Shp1 (FIG. 1). […]

[3] = chow pharmacokinetic (PK) study, plasma Compound VII-1 after Compound VII-49 chow; assay type: in vivo, Mice; details: Compound VII-49 0.6 g/kg diet relative to 0.12 g/kg or 0.3 g/kg diet

In the case of `CCO[C@H]1CC[C@H](n2cc(NC(=O)c3csc(-c4cnn(C(C)OP(=O)(O)O)c4)n3)c(-c3nc(F)ccc3F)n2)CC1` (stereo partly drawn) [VII-49, 1-(4-(4-((3-(3,6-difluoropyridin-2-yl)-1-((1r,4r)-4-ethoxycyclohexyl)-1H-pyrazol-4-yl)carbamoyl)thiazol-2-yl)-1H-pyrazol-1-yl)ethyl dihydrogen phosphate tris salt], the “change in body weight” value [1] is reported as “increase in body weight”, the “lung inflammation as seen in body weight change” value [2] is reported as “rescues” and the “R835 (Compound VII-1) concentration (AUC and Cmax) in plasma” value [3] is reported as “highest”.
